# Measured values published in PubChem BioAssay (NCATS).
# “And” between values parts separate entries of the source, which are not always exact repeats. Identical values can stand only once. Inconclusive results, whose numbers are uncertain, are shown with a selection of clear calls. Potencies of inconclusive entries are doubtful fits and often do not repeat. The source made the active and inactive calls. Calls follow the shape of the dose curve; as a rule, active = well fitted inhibition curve with a large enough effect; inconclusive = small, poorly fitted or top-dose-only effect; inactive = flat fitted curve, though single readings scatter.
# Test: P-glycoprotein substrates identified in KB-8-5-11 adenocarcinoma cell line, qHTS therapeutic library screen (AID 1346987); also: nearly all actives have a fitted effect of over 65% in size
# Conditions: KB-8-5-11 (P-gp overexpressing) viability, CellTiter-Glo, 72 h; series mostly up to 44.5 µM
# Procedure, shortened: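 Human cervical adenocarcinoma KB-8-5-11 cells, selected in colchicine to over-express P-gp and assayed without it, were exposed for 72 h to titrated compounds. An ATP-based luminescent viability signal gave AC50.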
# Potency is read from the fitted curve at half-maximal effect; tags tell the direction and shape of the fitted curve.
SMILES,Potency,outcome
CC(C)=CCC[C@]1(C)C=Cc2c(O)c3c(c(CC=C(C)C)c2O1)O[C@]12C(=C[C@@H]4CC1C(C)(C)O[C@@]2(C/C=C(/C)C(=O)O)C4=O)C3=O,active: 4.11 µM,–
C[C@]12CC[C@H](O)CC1=CC[C@@H]1C2CC[C@]2(C)[C@@H](C3=CC(=O)OC3)CC[C@]12O (stereo partly drawn),active: 10.1 µM,–
CC(C)Oc1cccc(NC(=O)c2ccccc2C(F)(F)F)c1,"inconclusive: 31.6 µM [inhibitor, partial curve]",–
C=C[C@H]1CN2CC[C@H]1C[C@@H]2[C@@H](O)c1ccnc2ccccc12,"inconclusive: 7.31 µM [inhibitor, partial curve] and inconclusive: 3.26 µM [inhibitor, partial curve, poor fit]",–
CC[C@H]1/C=C\C=C/C[C@@H](C)[C@H](O)[C@@](C)(O)C(=O)[C@@H](C)[C@H](O)[C@@H](C)C(=O)[C@@H](C)[C@H](O)[C@@H](C)/C=C\C(=O)O[C@@H]2[C@H](C)[C@H](CC1)O[C@]1(CC[C@H](C)[C@H](C[C@@H](C)O)O1)[C@H]2C,"inconclusive: 0.082 µM [inhibitor, full curve, poor fit]",–
C[C@]12CCC(=O)C[C@@H]1CC[C@@H]1[C@@H]2CC[C@]2(C)[C@@H](O)CC[C@@H]12,active: 8.2 µM,–
C#C[C@]1(O)CC[C@H]2[C@@H]3CC[C@H]4Cc5nc6nc7ccccc7n6cc5C[C@]4(C)[C@H]3CC[C@@]21C,active: 20.6 µM,–
C[N@@+]1(CC2CC2)CC[C@]23c4c5ccc(O)c4O[C@H]2C(=O)CC[C@@]3(O)[C@H]1C5,–,inactive
